From PubChem BioAssay AID493208 (National Center for Advancing Translational Sciences (NCATS), 2011)
Screen size: about 44,000 compounds; about 340 (0.77%) were called active. Roughly 5% stayed inconclusive and do not appear here. Calls come from the whole dose curve; as a rule, active = well fitted inhibition curve with a large enough effect; inconclusive = small, poorly fitted or top-dose-only effect; inactive = flat fitted curve, though single readings scatter. The list shows a part of the results.

assay: Acumen qHTS Assay for Inhibitors of the mTORC1 Signaling Pathway in MEF (Tsc2-/-, p53-/-) Cells: Sytravon; settings: phospho-rpS6 immunofluorescence/PI, 24 h; series mostly up to 38.3 µM; activity change, negative = inhibition: at the top concentration;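 note: plate controls were DMSO for no effect and rapamycin for full effect; nearly all actives have a fitted effect of over 50% in size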
Method in brief: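 Immunofluorescence of rpS6 phosphorylation in Tsc2-/-, p53-/- MEFs after 24 h compound exposure, normalized to propidium iodide signal. Activity is expressed as % positive cells, thresholded with 7.5 nM rapamycin.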

Row | SMILES | activity change, negative = inhibition
1 | CCCSc1nc2sc3c(c2c(=O)n1-c1ccc(C)cc1)CCCC3 | inactive: 3.79%
2 | CCOC(=O)c1c(S(=O)(=O)NCC(=O)Nc2cccc(SC)c2)c(C)n(C)c1C | inactive: -11.4%
3 | CC1=C(c2ccc(C(C)C)cc2)S(=O)(=O)NC1=NCc1ccc(OC(C)C)cc1 | inactive: -1.76%
4 | Cc1ccc(CNC(=O)C2CCCN(c3nc4ccccc4n4cccc34)C2)cc1 (configuration not stated) | inactive: 8.39%
5 | CC1CCN(CCCNC(=O)CN2C(=O)CSc3ccc(S(=O)(=O)N4CCCCC4)cc32)CC1 | inactive: 8.2%
6 | COc1ccc(C(C)NC(=O)CN(c2cc(OC)ccc2OC)S(=O)(=O)c2ccccc2)cc1 (configuration not stated) | inactive: 5.21%
7 | Brc1cccc(-c2nn(-c3ccccc3)c3c2cnc2cc4c(cc23)OCO4)c1 | inactive: -1.74%
8 | COCCn1c(CNC(=O)c2ccccc2C)nc2cccnc21 | inactive: -1.17%
9 | COc1ccc(NC(=O)Nc2cccc(-c3noc(C)n3)c2)cc1 | inactive: -4.8%
10 | O=C(c1cccs1)N1CCCc2cc(NS(=O)(=O)c3ccc(Br)cc3)ccc21 | inactive: 0.106%
11 | CCc1cccc(C)c1NC(=O)C1CCN(S(=O)(=O)c2cc(Br)cc3c2N(C(C)=O)CC3)CC1 | inactive: -6.9%
12 | COc1cccc(-n2ccnc2SCC(=O)Nc2cccc3ccccc23)c1 | inactive: -2.97%
13 | O=C(NCc1ccccc1Cl)c1ccc2c(c1)ncn2-c1cccc(F)c1 | inactive: -10.1%
14 | COc1ccc(-n2c(CC3C(=O)Nc4ccc(C)cc43)nc3ccccc3c2=O)cc1 (configuration not stated) | inactive: 0.587%
15 | CCCSC1=NC2(CCN(C(=O)NC3CCCCC3)CC2)N=C1c1ccc(OC)cc1 | inactive: -6.73%
16 | O=c1c2c3c(sc2nnn1CCCCOc1ccc(Cl)cc1)CCCC3 | inactive: 1.82%
17 | COc1cc(-c2noc(-c3cc4cccc(C)c4oc3=O)n2)cc(OC)c1OC | inactive: 3.88%
18 | CCOc1ccccc1-n1c(N)c(C(=O)OC)c2nc3ccccc3nc21 | inactive: -2.46%
19 | COc1ccc(-c2nsc(NC(=O)c3oc4ccc(Cl)cc4c3C)n2)cc1 | inactive: 0.969%
20 | O=C(Nc1ccc(F)cc1)c1nc(SCc2ccccc2F)ncc1Cl | inactive: -13.4%
21 | N#C/C(=C/c1ccc(O)cc1)c1nc(-c2ccc(-c3ccccc3)cc2)cs1 | inactive: 0.591%

Row | SMILES | activity change, negative = inhibition
22 | Cc1nc(-c2cccc(F)c2)sc1CCNC(=O)Cc1ccc(F)cc1 | inactive: -5.45%
23 | Cc1ccc(OCCn2c(CNc3ccccc3C)nc3ccccc32)cc1 | inactive: -16.5%
24 | Cn1c(C(=O)NCc2ccccc2Cl)cc2sc(Cl)cc21 | inactive: 1.53%
25 | Cc1cc(NC(=O)c2cnn(-c3ccccc3)c2-n2cccc2)ccc1Br | inactive: -11.8%
26 | CCc1cccc(NC(=O)Cn2c(=O)n(CC3CCC(C(=O)NC)CC3)c(=O)c3sccc32)c1 (configuration not stated) | inactive: 7.12%
27 | COc1cccc(CNC(=O)CN(c2ccc(C)cc2)S(=O)(=O)N(C)C)c1OC | inactive: -0.711%
28 | COc1ccc(-c2csc3ncnc(Nc4ccc(OC)cc4OC)c23)cc1 | inactive: 0%
29 | COc1cccc(-c2nc3c(C#N)c[nH]n3c2NC2CCCCC2)c1 | inactive: -4.26%
30 | N#CC1=C(N)N(c2ccc(Cl)cc2)C2=C(C(=O)CCC2)C1c1cc(CN2CCOCC2)cs1 (configuration not stated) | inactive: -11.8%
31 | COc1cc(NS(=O)(=O)c2cc(Br)cc3c2N(C(C)=O)C(C)C3)cc(OC)c1 (configuration not stated) | inactive: -8.56%
32 | O=C(NC1CCCCC1)c1ccc2c(c1)N(Cc1ccc(F)cc1)C(=O)c1ccccc1S2(=O)=O | inactive: -1.76%
33 | COc1cccc(CNC(=O)Cn2c(=O)cc(C)c3c(C)nn(C)c32)c1OC | inactive: 2.66%
34 | Cc1cccc(N(C)C(=O)C2CCC(CNS(=O)(=O)c3cccc4nsnc34)CC2)c1 (configuration not stated) | inactive: 0.714%
35 | CCN(CC)C(=O)c1sc2c(c1C)c(=O)n(-c1ccccc1)c(=O)n2CC(=O)N(CC)c1cccc(C)c1 | inactive: -1.85%
36 | COc1cc(C(=O)Nc2cc(C)c(O)c(-c3nc4cc(Cl)ccc4o3)c2)cc(OC)c1OC | inactive: -0.192%
37 | CCOC(=O)CSc1nnc(-c2ccc(OC)cc2)o1 | inactive: -0.82%
38 | CCCOc1ccc(C(=O)N(Cc2ccc(Cl)cc2)Cc2ccco2)cc1 | inactive: -2.7%
39 | Cc1cn2c(=O)cc(COC(=O)COc3ccc(C)c(C)c3)nc2s1 | inactive: -4.31%
40 | COc1cc(NC(=O)CCS(=O)(=O)c2ccc(Br)cc2)cc(OC)c1 | inactive: 1.66%
41 | Cc1ccc(CNC(=O)c2ccc3c(c2)NC(=O)C(CS(=O)(=O)Cc2cccc(C)c2)N3)cc1 (configuration not stated) | inactive: 0.365%
42 | CCCCN(C)C(=O)CN1C(=O)c2cccnc2Oc2ccc(Cl)cc21 | inactive: 1.12%

Row | SMILES | activity change, negative = inhibition
43 | CN(C(=O)CSc1nncn2c1cc1occc12)c1ccccc1 | inactive: -11.3%
44 | O=C(NCc1cccs1)c1ccc2c(c1)sc1nc(-c3ccccc3)cn12 | inactive: -3.79%
45 | CC(C)c1ccc(-c2noc(SCC(=O)N3CCN(c4ccccc4F)CC3)n2)cc1 | inactive: 4.07%
46 | Cn1c(CNC(=O)CSc2nc(-c3ccccc3F)nc3cc(=O)[nH]n23)nc2ccccc21 | inactive: 3.54%
47 | COc1ccc(Cn2ccn(CC(=O)Nc3cc(C)ccc3C)c(=O)c2=O)cc1 | inactive: -9.52%
48 | Cc1ccc(NC(=O)Cn2c(=O)ccc3cc(S(=O)(=O)N4CCCC4)ccc32)cc1C | inactive: -0.351%
49 | Cc1c(C(=O)N2CCC(C(=O)Nc3ccc(F)c(Cl)c3)CC2)sc2nc[nH]c(=O)c12 | inactive: -7.27%
50 | CCCOc1ccc(C2C(=O)N(C3CCCCCC3)CC(=O)N2C(C)C)cc1OC (configuration not stated) | inactive: 3.12%
51 | Cc1cc2nn(-c3ccc(F)cc3)nc2cc1NC(=O)c1ccc(C(C)(C)C)cc1 | inactive: -16.5%
52 | COc1cc(CN(C(=O)c2ccccc2)c2ccccn2)cc(OC)c1OC | inactive: 0.135%
53 | COc1ccc(-c2cn3cccnc3n2)cc1NC(=O)c1ccccc1C(F)(F)F | inactive: -1.96%
54 | COc1ccc2c(c1)c(=O)c(C(=O)c1ccc(F)cc1)cn2CC(=O)Nc1ccc2c(c1)OCCO2 | inactive: -10.6%
55 | COc1cccc(CNC(=O)Nc2cn(CC(C)C)c(=O)c3ccccc23)c1 | inactive: -4.34%
56 | COc1ccc(-c2oc3ncn4nc(-c5ccccc5OC)nc4c3c2-c2ccc(OC)cc2)cc1 | inactive: 15.8%
57 | Cc1nnc2c3ccccc3nc(Nc3ccc(F)cc3Cl)n12 | inactive: 2.25%
58 | CCOC(=O)c1cc(-c2ccc(F)cc2)n(CCC(=O)Nc2nc3cc(C)c(C)cc3s2)c1C | inactive: 0.0694%
59 | COc1ccc(OCc2ccc(-c3nc(C#N)c(NCc4ccc(F)cc4)o3)o2)cc1 | inactive: -11.6%
60 | Cc1nc(N2CCCC2)ncc1C(=O)Nc1ccc(OC(F)(F)F)cc1 | inactive: 4.76%
61 | COc1cc(OC)cc(-n2c(=O)c3sccc3n(Cc3cc(=O)n4c(C)cccc4n3)c2=O)c1 | inactive: -2.59%
62 | Cc1ccc2c(CC(=O)Nc3nnc(C(C)C)s3)coc2c1C | inactive: 3.97%
